The text below walks through data of the supplement of paper PMC12217912.

Sequences and labels used below:
B1: TEV protease; numbered along this chain (parent)
chain: MGESLFKGPRDYNPISSSICHLTNESDGHTTSLYGIGFGPFIITNKHLFRRNNGTLVVQSLHGVFKVKDTTTLQQHLVDGRDMIIIRMPKDFPPFPQKLKFREPQREERICLVTTNFQTKSMSSMVSDTSCTFPSGDGIFWKHWIQTKDGQCGSPLVSTRDGFIVGIHSASNFTNTNNYFTSVPKNFMELLTNQEAQQWVSGWRLNADSVLWGGHKVFMVKPEEPFQPVKEATQL

The variants in this assay derive from B1. The experiment in a line: raw area under fraction-flipped curve 0-4 h after induction (AUC4h, not background-subtracted), DNA-recorder readout of cleavage of the substrate (dimensionless); higher = more cleavage of the substrate by the protease variant. The following applies: temperature: 34 °C; time window: 0-4 h after rhamnose induction. The protocol: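 In vivo DNA recorder in E. coli TOP10(DE3) ΔrhaA at 34 °C. Each TEVp single-site mutant (parent TEVp 0) is paired with a single-site variant of the 7-mer TEVs (canonical ENLYFQ|S). The substrate sits between flexible linkers in a Bxb1-sfGFP-TEVs-SsrA fusion, so cleavage stabilises Bxb1 and speeds flipping of a recombination array, read by NGS. The value is the raw area under the fraction-flipped curve over 0-4 h after rhamnose induction (AUC4h), with ≥20 reads per time point. It is not background-subtracted; inactive controls average about 0.047.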

This is one part of the list. Sequences were assembled here from the parent chain. Inactive controls read about 0.05.
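Further: Bxb1 expression induced with 0.2% (w/v) L-rhamnose at OD600 near 0.5, cultures sampled hourly, flipped fraction per protease–substrate barcode pair counted by paired-end Illumina sequencing.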

For the variant MGESLFDGPRDYNPISSSICHLTNESDGHTTSLYGIGFGPFIITNKHLFRRNNGTLVVQSLHGVFKVKDTTTLQQHLVDGRDMIIIRMPKDFPPFPQKLKFREPQREERICLVTTNFQTKSMSSMVSDTSCTFPSGDGIFWKHWIQTKDGQCGSPLVSTRDGFIVGIHSASNFTNTNNYFTSVPKNFMELLTNQEAQQWVSGWRLNADSVLWGGHKVFMVKPEEPFQPVKEATQL [K7D], the “area with substrate ENLYFQA” value came out at 0.0805, the “area with substrate ENLYFQC” value stood at 0.105, the “area with substrate ENLYFQD” value was determined as 0.0743 and the “area with substrate ENLYFQF” value was 0.0816. Besides, the “area with substrate ENLYFQH” value amounted to 0.0686, the “area with substrate ENLYFQI” value came to 0.0512, the “area with substrate ENLYFQL” value was determined as 0.0561 and the “area with substrate ENLYFQM” value was 0.075. In addition, the “area with substrate ENLYFQR” value stood at 0.0792, the “area with substrate ENLYFQS” value was 0.0863 and the “area with substrate ENLYFQY” value turned out to be 0.0776.

Consider MGESLFKGLRDYNPISSSICHLTNESDGHTTSLYGIGFGPFIITNKHLFRRNNGTLVVQSLHGVFKVKDTTTLQQHLVDGRDMIIIRMPKDFPPFPQKLKFREPQREERICLVTTNFQTKSMSSMVSDTSCTFPSGDGIFWKHWIQTKDGQCGSPLVSTRDGFIVGIHSASNFTNTNNYFTSVPKNFMELLTNQEAQQWVSGWRLNADSVLWGGHKVFMVKPEEPFQPVKEATQL [P9L], for which the “area with substrate ENLYFQA” value amounted to 0.114, the “area with substrate ENLYFQC” value amounted to 0.162, the “area with substrate ENLYFQD” value was 0.0751 and the “area with substrate ENLYFQG” value is 0.171. The “area with substrate ENLYFQH” value came out at 0.0885, the “area with substrate ENLYFQI” value was 0.0521, the “area with substrate ENLYFQL” value came out at 0.0674 and the “area with substrate ENLYFQM” value turned out to be 0.109. Besides, the “area with substrate ENLYFQN” value was 0.0751, the “area with substrate ENLYFQQ” value came out at 0.0762, the “area with substrate ENLYFQR” value stood at 0.0605 and the “area with substrate ENLYFQS” value was 0.116. The “area with substrate ENLYFQW” value came to 0.0782.

For MGESLFKGPRVYNPISSSICHLTNESDGHTTSLYGIGFGPFIITNKHLFRRNNGTLVVQSLHGVFKVKDTTTLQQHLVDGRDMIIIRMPKDFPPFPQKLKFREPQREERICLVTTNFQTKSMSSMVSDTSCTFPSGDGIFWKHWIQTKDGQCGSPLVSTRDGFIVGIHSASNFTNTNNYFTSVPKNFMELLTNQEAQQWVSGWRLNADSVLWGGHKVFMVKPEEPFQPVKEATQL [D11V], the “area with substrate ENLYFQA” value was 0.0877, the “area with substrate ENLYFQC” value came to 0.107, the “area with substrate ENLYFQD” value was 0.0623 and the “area with substrate ENLYFQE” value was found to be 0.0671. Further, the “area with substrate ENLYFQF” value is 0.0674, the “area with substrate ENLYFQG” value is 0.0621, the “area with substrate ENLYFQH” value was 0.119 and the “area with substrate ENLYFQI” value stood at 0.0577. Besides, the “area with substrate ENLYFQK” value was 0.0706, the “area with substrate ENLYFQL” value is 0.0603, the “area with substrate ENLYFQM” value is 0.0824 and the “area with substrate ENLYFQN” value worked out at 0.0695. The “area with substrate ENLYFQP” value is 0.0574, the “area with substrate ENLYFQR” value is 0.0681, the “area with substrate ENLYFQS” value worked out at 0.0875 and the “area with substrate ENLYFQT” value came out at 0.0633. The “area with substrate ENLYFQV” value amounted to 0.0588 and the “area with substrate ENLYFQW” value came out at 0.0498.

As for MGMSLFKGPRDYNPISSSICHLTNESDGHTTSLYGIGFGPFIITNKHLFRRNNGTLVVQSLHGVFKVKDTTTLQQHLVDGRDMIIIRMPKDFPPFPQKLKFREPQREERICLVTTNFQTKSMSSMVSDTSCTFPSGDGIFWKHWIQTKDGQCGSPLVSTRDGFIVGIHSASNFTNTNNYFTSVPKNFMELLTNQEAQQWVSGWRLNADSVLWGGHKVFMVKPEEPFQPVKEATQL [E3M], the “area with substrate ENLYFQA” value turned out to be 0.127, the “area with substrate ENLYFQC” value turned out to be 0.111, the “area with substrate ENLYFQE” value worked out at 0.0798 and the “area with substrate ENLYFQF” value came to 0.082. For the same variant, the “area with substrate ENLYFQH” value was 0.0629, the “area with substrate ENLYFQI” value is 0.0552, the “area with substrate ENLYFQK” value is 0.0809 and the “area with substrate ENLYFQL” value came to 0.0819. The “area with substrate ENLYFQM” value was 0.112, the “area with substrate ENLYFQR” value was 0.0507, the “area with substrate ENLYFQS” value came out at 0.13 and the “area with substrate ENLYFQV” value came out at 0.0469. The “area with substrate ENLYFQW” value was found to be 0.0682 and the “area with substrate ENLYFQY” value stood at 0.0503.

MGHSLFKGPRDYNPISSSICHLTNESDGHTTSLYGIGFGPFIITNKHLFRRNNGTLVVQSLHGVFKVKDTTTLQQHLVDGRDMIIIRMPKDFPPFPQKLKFREPQREERICLVTTNFQTKSMSSMVSDTSCTFPSGDGIFWKHWIQTKDGQCGSPLVSTRDGFIVGIHSASNFTNTNNYFTSVPKNFMELLTNQEAQQWVSGWRLNADSVLWGGHKVFMVKPEEPFQPVKEATQL [E3H]: the “area with substrate ENLYFQA” value amounted to 0.0929, the “area with substrate ENLYFQC” value was 0.0722, the “area with substrate ENLYFQD” value was 0.0848 and the “area with substrate ENLYFQE” value was found to be 0.0608. Moreover, the “area with substrate ENLYFQG” value stood at 0.111, the “area with substrate ENLYFQI” value came out at 0.0634, the “area with substrate ENLYFQK” value came out at 0.0715 and the “area with substrate ENLYFQL” value amounted to 0.0616. Besides, the “area with substrate ENLYFQM” value came to 0.0857, the “area with substrate ENLYFQR” value came to 0.0647, the “area with substrate ENLYFQS” value was found to be 0.11 and the “area with substrate ENLYFQT” value was found to be 0.0802. Besides, the “area with substrate ENLYFQV” value came to 0.0617, the “area with substrate ENLYFQW” value was 0.0672 and the “area with substrate ENLYFQY” value came to 0.082.

As for MGESLFKGPRDYEPISSSICHLTNESDGHTTSLYGIGFGPFIITNKHLFRRNNGTLVVQSLHGVFKVKDTTTLQQHLVDGRDMIIIRMPKDFPPFPQKLKFREPQREERICLVTTNFQTKSMSSMVSDTSCTFPSGDGIFWKHWIQTKDGQCGSPLVSTRDGFIVGIHSASNFTNTNNYFTSVPKNFMELLTNQEAQQWVSGWRLNADSVLWGGHKVFMVKPEEPFQPVKEATQL [N13E], the “area with substrate ENLYFQA” value turned out to be 0.0864, the “area with substrate ENLYFQC” value is 0.14, the “area with substrate ENLYFQD” value turned out to be 0.0771 and the “area with substrate ENLYFQE” value is 0.0703. Besides, the “area with substrate ENLYFQF” value was 0.0698, the “area with substrate ENLYFQG” value was found to be 0.0866, the “area with substrate ENLYFQH” value was determined as 0.0858 and the “area with substrate ENLYFQI” value stood at 0.0565. Besides, the “area with substrate ENLYFQL” value was 0.069, the “area with substrate ENLYFQM” value stood at 0.0807, the “area with substrate ENLYFQP” value worked out at 0.0652 and the “area with substrate ENLYFQR” value was 0.0541. The “area with substrate ENLYFQS” value turned out to be 0.102, the “area with substrate ENLYFQT” value was 0.059, the “area with substrate ENLYFQV” value amounted to 0.0514 and the “area with substrate ENLYFQW” value stood at 0.0563.

Consider MGECLFKGPRDYNPISSSICHLTNESDGHTTSLYGIGFGPFIITNKHLFRRNNGTLVVQSLHGVFKVKDTTTLQQHLVDGRDMIIIRMPKDFPPFPQKLKFREPQREERICLVTTNFQTKSMSSMVSDTSCTFPSGDGIFWKHWIQTKDGQCGSPLVSTRDGFIVGIHSASNFTNTNNYFTSVPKNFMELLTNQEAQQWVSGWRLNADSVLWGGHKVFMVKPEEPFQPVKEATQL [S4C], for which the “area with substrate ENLYFQA” value worked out at 0.079, the “area with substrate ENLYFQC” value was 0.0839, the “area with substrate ENLYFQD” value stood at 0.0643 and the “area with substrate ENLYFQG” value is 0.0821. Further, the “area with substrate ENLYFQH” value is 0.0619, the “area with substrate ENLYFQI” value amounted to 0.058, the “area with substrate ENLYFQK” value amounted to 0.0781 and the “area with substrate ENLYFQL” value was 0.0607. The “area with substrate ENLYFQM” value was found to be 0.0731, the “area with substrate ENLYFQN” value was determined as 0.0743, the “area with substrate ENLYFQP” value is 0.0467 and the “area with substrate ENLYFQR” value was 0.063. For the same variant, the “area with substrate ENLYFQS” value amounted to 0.0834, the “area with substrate ENLYFQT” value was 0.0695, the “area with substrate ENLYFQW” value is 0.0771 and the “area with substrate ENLYFQY” value was found to be 0.0536.

MGESLFKGPMDYNPISSSICHLTNESDGHTTSLYGIGFGPFIITNKHLFRRNNGTLVVQSLHGVFKVKDTTTLQQHLVDGRDMIIIRMPKDFPPFPQKLKFREPQREERICLVTTNFQTKSMSSMVSDTSCTFPSGDGIFWKHWIQTKDGQCGSPLVSTRDGFIVGIHSASNFTNTNNYFTSVPKNFMELLTNQEAQQWVSGWRLNADSVLWGGHKVFMVKPEEPFQPVKEATQL [R10M]: the “area with substrate ENLYFQA” value was found to be 0.125, the “area with substrate ENLYFQC” value was 0.124, the “area with substrate ENLYFQF” value came out at 0.0745 and the “area with substrate ENLYFQG” value was 0.0805. Besides, the “area with substrate ENLYFQH” value was determined as 0.0789, the “area with substrate ENLYFQI” value came out at 0.0524, the “area with substrate ENLYFQK” value worked out at 0.052 and the “area with substrate ENLYFQM” value is 0.0884. Besides, the “area with substrate ENLYFQN” value turned out to be 0.0924, the “area with substrate ENLYFQQ” value is 0.0639, the “area with substrate ENLYFQR” value came to 0.0745 and the “area with substrate ENLYFQS” value came out at 0.106. For the same variant, the “area with substrate ENLYFQT” value was determined as 0.0672, the “area with substrate ENLYFQV” value was 0.0338 and the “area with substrate ENLYFQW” value turned out to be 0.0564.

For the variant MGESLFKGPRDLNPISSSICHLTNESDGHTTSLYGIGFGPFIITNKHLFRRNNGTLVVQSLHGVFKVKDTTTLQQHLVDGRDMIIIRMPKDFPPFPQKLKFREPQREERICLVTTNFQTKSMSSMVSDTSCTFPSGDGIFWKHWIQTKDGQCGSPLVSTRDGFIVGIHSASNFTNTNNYFTSVPKNFMELLTNQEAQQWVSGWRLNADSVLWGGHKVFMVKPEEPFQPVKEATQL [Y12L], the “area with substrate ENLYFQA” value came out at 0.0954, the “area with substrate ENLYFQC” value worked out at 0.129, the “area with substrate ENLYFQD” value was 0.0772 and the “area with substrate ENLYFQF” value is 0.0903. Moreover, the “area with substrate ENLYFQG” value stood at 0.103, the “area with substrate ENLYFQH” value is 0.114, the “area with substrate ENLYFQI” value was 0.0578 and the “area with substrate ENLYFQK” value is 0.0771. The “area with substrate ENLYFQL” value is 0.0723, the “area with substrate ENLYFQM” value stood at 0.0914, the “area with substrate ENLYFQN” value came to 0.0763 and the “area with substrate ENLYFQP” value was 0.0596. The “area with substrate ENLYFQQ” value was determined as 0.0725, the “area with substrate ENLYFQR” value came out at 0.0569, the “area with substrate ENLYFQS” value worked out at 0.108 and the “area with substrate ENLYFQT” value was found to be 0.0649. Besides, the “area with substrate ENLYFQV” value was found to be 0.0357 and the “area with substrate ENLYFQW” value came out at 0.062.
